In all, about 33,000 sequences were measured (“E-score (-0.5 to 0.5)”: median about -0.01, highest 2% from about 0.26 on). The list shows a part of the results.
Molecular target: Ste12 (UniProt P13574)
Assay: PBM E-score (8-mer binding enrichment) (E-score (-0.5 to 0.5)); higher = stronger / more preferred TF binding; most listed sequences are background and not binding sites
Details: protein concentration: 200 nM; construct: GST-DNA-binding domain
In short: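 Yeast transcription factors, full-length or as DNA-binding domains, were expressed with a GST tag using PURExpress in vitro transcription/translation. At about 100-200 nM they were applied to universal all-10-mer Agilent arrays, double-stranded by primer extension on fresh or once-stripped slides. Fluorescent anti-GST detected bound protein, and masliner normalised the scans. E-scores for ungapped eight-base words, pooled with reverse complements, came from the Universal PBM Analysis Suite.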

Sequence | PBM E-score
CGTTAATC | 0.0362
GGTGATAA | 0.17
AGGTAAAT | 0.159
CGGGGCTC | -0.0955
CTCACTAA | 0.107
ACCATCAA | -0.152
CCGTCAGC | -0.115
CTAATATC | 0.0817
GCCAGATA | -0.0626
ACGTCATA | -0.0167
CCTATAGC | -0.258
AGCATACG | 0.00544
ATCCCACG | -0.107
CTTAGGTC | 0.0752
AACTGCCA | -0.104
AGCGCATA | 0.0217
CGCTCAGA | 0.0473
CCTTCGGA | -0.136
AATACCGG | 0.0301
CGCAAGAA | 0.0941
CCGAGACG | 0.0139
AACTGCCG | 0.00429
GCAAGAAA | 0.173
ATCGTATC | 0.0584
TAAAGCTA | -0.18

Sequence | PBM E-score
CGCCGCTA | 0.0728
AGTGCCCA | -0.0639
AGTCCTTG | -0.264
GATGGCAA | 0.0154
GGACGGAC | -0.121
GCAGGGCC | -0.172
AACGGTCA | 0.119
CATGGGAC | 0.0343
CGACTTTC | 0.0311
GCACAGTA | -0.104
ACGAAATA | -0.0859
GCCGTACC | -0.029
CAGGCCGG | -0.246
AACCACAG | -0.0528
GTCGAGGA | -0.25
ACCATGCC | -0.0505
TAGATACA | 0.00707
AAGGCGTC | -0.0407
GAAATATA | 0.284
CAAGAGAG | -0.214
CGCCTGTC | -0.223
CAGTCAGG | -0.0865
CTACTGCA | -0.283
ATCACTGA | -0.00791
ATCGTCAG | -0.146

Sequence | PBM E-score
AATAGACG | -0.0669
ATTGTGAG | -0.0545
ACGCCAAT | 0.125
CCTCGCAG | -0.00708
CCCTCATC | -0.0291
CTGTAAAG | -0.0336
CATGCGAA | 0.0971
CCGTGGAG | -0.132
CCTGCCCA | -0.0543
CAGTCCGA | -0.163
AAGCCGAT | 0.211
GGCCCAGA | -0.214
TTACAAAA | 0.301
ATAATCAC | 0.0891
CCTCTGAA | -0.00449
GGTATGAC | -0.0173
ATATGTTC | 0.178
CCTCGTCC | -0.0707
CCGTGCTC | 0.0452
GCCCCACC | 0.266
AGTGGCCC | -0.0466
CAATCCGA | 0.0925
AGCCTAAC | -0.0097
AAAGAATG | 0.159
GACCTGGA | -0.0741

Sequence | PBM E-score
AACCTCCT | -0.0887
GGACTAAC | -0.113
CAGTCGAG | -0.251
ACATAAAT | 0.195
AGGTCATA | -0.0555
CCAGTGCA | -0.246
CCGAGCTC | 0.0232
AGCAACAT | -0.0522
ACTACCCA | -0.0308
CCTGCGGC | -0.189
AAACCACC | 0.219
AGAAGATC | -0.0265
CCCCGGGA | 0.0622
GCTCTAGA | -0.227
ATGGACGA | 0.116
CTACTTGA | -0.014
ATGTGGAC | -0.14
CAGATCCC | 0.057
ATAAGATC | 0.0331
CACAACCG | 0.222
GGCAGCCA | 0.0916
CCTTCTTA | -2e-05
GAATATCA | 0.0514
CGTGAAGA | -0.206
CTGGACGC | -0.207

Sequence | PBM E-score
GGACCGGA | 0.0141
AGGACCGG | -0.188
ACCGGGAG | -0.0767
ATGTCTCC | -0.0509
TAACACTA | 0.171
ACCAAAAC | 0.235
TGAGATAA | 0.0769
GACGAGCA | -0.0774
ACGACAGA | 0.00071
GTGGAATA | 0.147
ACTCCGCG | -0.0382
CATGCTGG | -0.164
CTCTGATC | -0.00186
ATCCAAGA | 0.136
CGCCAAAA | 0.227
ACTTCGAC | 0.195
CATTCTTA | 0.0613
AGGAACTG | -0.0358
ACCGCCAA | 0.056
ACCGGCGC | 0.197
ATGTTGTG | -0.00637
GCGTAGAC | -0.262
CTGTTACC | -0.03
TATTCCAA | 0.0783
TCGACCAA | -0.111

Sequence | PBM E-score
GTGGCGTA | -0.136
ATGCGTCC | -0.126
ATAGTAAC | 0.0842
GGACGCAA | -0.0696
GCGAGCTA | -0.0339
AGAGTAAA | 0.0233
ACAGTCAA | -0.0061
ACGTTACT | 0.0576
CATTGTCG | -0.021
TCAAAGCA | 0.042
AACACAAA | 0.112
TAACAGTA | 0.164
CGCTACGA | 0.0421
CGTGCCCC | -0.0701
CACAGGAG | 0.0604
CTCGAACC | 0.00272
CTGTGTGC | -0.185
ATTGTTTA | 0.0651
GAACACTA | -0.13
AGGTATTG | 0.0861
ACGACCTC | 0.0198
CATTGTAG | 0.194
CTTGTTCC | -0.0735
GAAACTAC | 0.158
CCTCCAGC | -0.07

Sequence | PBM E-score
ATATACAT | 0.00017
CGTGTCAG | 0.133
AAATTCCT | -0.127
ATAGTTCG | 0.0431
CTGTGAAA | 0.322
CAGGCTAG | -0.117
ACGCACGA | 0.132
ACGTGCCA | -0.145
GGACCGTA | -0.156
ATCGTCTG | -0.0282
CCCGCGGG | 0.0996
GCACAGCA | -0.102
AACAACGT | 0.0627
AGACGATC | -0.0937
ACTGGGAC | -0.0908
CCGGAGTA | -0.0488
CATACCAA | -0.0054
CTGCGTTC | -0.0369
GCACAGAA | 0.0897
CATGCTAC | -0.185
AGGCCCAG | -0.0471
GATAGCCA | -0.119
